Reference: paper PMC4336329 (PLoS ONE, 2015)
Among all 310,000 compounds or so, about 2,200 (0.71%) showed an effect of 50% or more. Effects have a minus sign here. This is one part of the list.

Target: human ether-à-go-go-related gene (hERG) potassium channel (human, UniProt Q12809)
Assay: primary screen, population patch clamp on CHO cells stably expressing hERG

human ether-à-go-go-related gene (hERG) potassium channel, sequence (Q12809 whole entry, looked up): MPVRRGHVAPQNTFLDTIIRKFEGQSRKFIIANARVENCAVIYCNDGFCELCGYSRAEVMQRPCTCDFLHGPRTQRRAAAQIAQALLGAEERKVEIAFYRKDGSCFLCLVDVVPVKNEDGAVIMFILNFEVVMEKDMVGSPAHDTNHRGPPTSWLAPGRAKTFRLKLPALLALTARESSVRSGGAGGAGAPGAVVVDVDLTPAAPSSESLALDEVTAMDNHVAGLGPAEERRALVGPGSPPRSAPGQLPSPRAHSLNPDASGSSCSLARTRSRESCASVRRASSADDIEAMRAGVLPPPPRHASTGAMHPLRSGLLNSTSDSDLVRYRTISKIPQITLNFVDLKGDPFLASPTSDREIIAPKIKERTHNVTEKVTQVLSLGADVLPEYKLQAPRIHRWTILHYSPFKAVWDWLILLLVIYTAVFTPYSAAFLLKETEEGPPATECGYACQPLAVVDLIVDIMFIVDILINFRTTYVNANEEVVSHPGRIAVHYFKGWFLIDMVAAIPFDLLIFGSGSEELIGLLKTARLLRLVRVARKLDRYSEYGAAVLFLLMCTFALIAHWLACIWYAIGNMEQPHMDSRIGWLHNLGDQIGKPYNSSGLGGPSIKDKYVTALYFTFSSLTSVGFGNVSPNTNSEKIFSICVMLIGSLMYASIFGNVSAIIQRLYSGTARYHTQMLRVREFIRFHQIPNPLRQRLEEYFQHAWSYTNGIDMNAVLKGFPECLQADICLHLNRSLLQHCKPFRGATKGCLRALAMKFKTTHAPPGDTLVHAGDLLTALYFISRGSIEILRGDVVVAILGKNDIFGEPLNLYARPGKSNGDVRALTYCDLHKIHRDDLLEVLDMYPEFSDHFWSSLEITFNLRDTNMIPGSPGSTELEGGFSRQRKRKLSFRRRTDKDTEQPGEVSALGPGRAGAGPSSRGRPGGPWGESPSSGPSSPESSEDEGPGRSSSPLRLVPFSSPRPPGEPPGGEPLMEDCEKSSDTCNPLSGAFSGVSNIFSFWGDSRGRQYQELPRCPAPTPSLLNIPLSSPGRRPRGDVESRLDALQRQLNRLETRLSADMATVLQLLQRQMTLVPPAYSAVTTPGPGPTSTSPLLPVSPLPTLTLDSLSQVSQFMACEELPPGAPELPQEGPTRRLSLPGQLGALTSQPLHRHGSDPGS

Compound | hERG current change (%, negative = inhibition) at 1uM
COc1ccc(CCNC(=O)C2CCCN(S(=O)(=O)c3ccc(OC)cc3)C2)cc1 (stereo not drawn) | -7.05%
CCOC(=O)N1CCC(N(CCN(C)C)C(=S)Nc2cc(Cl)ccc2C)CC1 | 3.01%
O=C(c1ccco1)N1CCN(S(=O)(=O)c2cccc(Cl)c2)CC1 | 4.12%
COC(=O)c1ccc(-c2ccco2)n1Cc1cccc(C)c1 | 10.5%
Cc1ccc(-c2noc(CCCC(=O)NC3CCCCC3)n2)cc1 | 7.88%
COc1cccc(-c2csc3nnc(SCC(=O)NCc4cccs4)n23)c1 | 6.37%
CC(C)[C@H](N)C(=O)OCCOCn1cnc2c(=O)[nH]c(N)nc21.Cl | 2.41%
CC(=O)Nc1ccc(NC(=O)CCN2C(=O)C3CC=CCC3C2=O)cc1 (stereo not drawn) | 13.7%
COc1ccc(NC(=O)C2(S(=O)(=O)c3ccc(C)cc3)CC2)cc1 | 7.69%
O=C(O)C(=O)O.O=[N+]([O-])c1ccccc1OCCNCc1ccccc1 | 10.9%
Oc1ccc(Cl)cc1C=NCCc1ccccc1 | 7.22%
CCc1cc2c(SCC(=O)N3CCCC3=O)ncnc2s1 | -3.34%
CCN(CC)C(=O)CSc1nc(C)cc(C)c1C#N | 6.98%
O=C(CN1CCN(C(=O)c2cccc(S(=O)(=O)N3CCCC3)c2)CC1)Nc1ccc(F)cc1 | -15%
Cc1cc(C)cc(-n2ncc3c2CCCC3NC(=O)c2cc(C)oc2C)c1 (stereo not drawn) | 9.68%
Cc1ccc(C(=O)OCC(=O)NCc2cccs2)cc1 | 2.15%
CC(C)(C)c1nnc(NC(=O)C2c3ccccc3Oc3ccccc32)s1 | 5.57%
Cc1cc(NC(=O)CSc2nncn2-c2ccccc2)no1 | 8.45%
COc1ccccc1-c1nc2s/c(=C\c3cccs3)c(=O)n2n1 | 9.81%

Compound | hERG current change (%, negative = inhibition) at 1uM
O=C(CSc1nnc(-c2ccncc2)o1)Nc1ccccc1C(F)(F)F | 0.939%
CCOC(=O)C1CCN(C(=O)COc2ccc(Cl)cc2Cl)CC1 | -4.79%
O=C(NCc1cccc(C(F)(F)F)c1)c1cc(-c2ccccc2)nn1CC1CC(c2cccnc2)=NO1 (stereo not drawn) | 11.4%
Nc1ncc(-c2ccc([N+](=O)[O-])cc2)cn1 | -0.958%
CC(=O)NC12CC3CC(C1)CC(C(=O)N1CCN(S(=O)(=O)c4cccs4)CC1)(C3)C2 | -0.585%
Cc1ccc(CN2C(=O)CCC2C(=O)N2CCN(c3ccccc3)CC2)cc1 (stereo not drawn) | -5.73%
NS(=O)(=O)c1ccc(NC(=S)N2CCN(c3ccccc3Cl)CC2)cc1 | 12%
CN(c1ccccc1)S(=O)(=O)c1cccc(C(=O)NNC(=O)c2ccncc2)c1 | -25%
CCCn1nnnc1SCC(=O)c1ccc(NC(C)=O)cc1 | 11.7%
C=CCn1c(SCc2ccccc2)nc(O)cc1=O | 0.554%
c1ccc(-c2oc3ncnc(NCCCn4ccnc4)c3c2-c2ccccc2)cc1 | -11.9%
O=C(NCc1n[nH]c(=S)n1-c1ccc(Br)cc1)c1cccs1 | 17.2%
O=S(=O)(/N=C/c1c(O)ccc2ccccc12)c1ccccc1 | 10.6%
CCN(CC)c1ccc(/C=N/Nc2nc3ccccc3[nH]2)c(O)c1 | 0.421%
CCSc1nnc(NC(=O)Cc2ccc(OC)c(OC)c2)s1 | 1.76%
COc1cc(NS(=O)(=O)c2cn(C)cn2)cc(OC)c1OC | 7.59%
O=C(Nc1cccc(C(F)(F)F)c1)c1cccc(NS(=O)(=O)c2ccc(Br)c(C(=O)O)c2)c1 | 11.1%
Cc1c(N2C(=O)/C(=C\c3ccc(N(C)C)cc3)N(C)C2=S)c(=O)n(-c2ccccc2)n1C | 11.9%
COc1ccc(C(=O)NC(=S)N(CCC(C)C)c2c(N)n(Cc3ccccc3)c(=O)[nH]c2=O)cc1 | -0.0572%

Compound | hERG current change (%, negative = inhibition) at 1uM
Cc1cccc(C)c1NC(=O)CNC(=O)C(C)NC(C)c1ccccc1Br (stereo not drawn) | 12.5%
CN1/C(=C/C2CC(=O)NC2=O)C(C)(C)c2ccccc21 (stereo not drawn) | -2.34%
CN(C)c1ccc([P+](=O)c2ccc(N(C)C)cc2)cc1 | 9.34%
CCCCCNC(=O)CCn1c(=O)oc2ccccc21 | 9.63%
Cc1c(OCC(=O)NC2CCN(Cc3ccccc3)CC2)ccc2c3c(c(=O)oc12)CCC3 | -6.73%
CCc1cc(=O)oc2cc(OC3CCCCC3=O)ccc12 (stereo not drawn) | 13.9%
CCOc1ccc(CN(C)Cc2cc(=O)oc3cc(C)c(Cl)cc23)cc1 | 7.69%
COc1ccc(NC(=O)NC2(C(=O)N3CCCC3)CCCCC2)cc1 | 20%
O=C(CCC1CCCCC1)Nc1cccnc1 | 12.9%
O=C(O)c1ccc(S(=O)(=O)N2CCC3(CC2)CC(=O)c2ccccc2O3)cc1 | 10.5%
CNc1nc2ccccc2n1/N=C/c1cccc(OC)c1OC | -1.07%
COc1ccccc1C(=O)NC(=O)COC(=O)CNC(=O)c1ccc(Cl)c([N+](=O)[O-])c1 | -15.6%
CCOC(=O)N1CCN(C(=O)Cn2ncc3c2-c2ccccc2OC3)CC1 | 11.2%
CS(=O)(=O)N1CCC(Oc2ccccc2C(=O)N2CCCCC2CO)CC1 (stereo not drawn) | 7.76%
CCOC(=O)CSc1nnc(-c2ccc(OC)cc2OC)o1 | 1.69%
Cc1ccc(NC(=O)Nc2cccs2)cc1 | 0.962%
Cn1cc(S(=O)(=O)NCCc2ccccc2)c(=O)n(C)c1=O | 4%
COc1cccc(N2C(=O)Nc3ccc(Br)cc3C2(O)C(=O)NCCCN(C)C)c1 (stereo not drawn) | 14%
O=C(NCCc1ccc(F)cc1)c1ccc2nccnc2c1 | 4.47%
